In PubChem BioAssay AID1671194 (National Center for Advancing Translational Sciences (NCATS), 2021):
Hit rate of the full screen: of about 140,000 compounds, about 240 (0.17%) were called active. The inconclusive results got no clear call from the source; some entries with a clear call stand among them for comparison. Calls come from the whole dose curve; as a rule, active = well fitted inhibition curve with a large enough effect; inconclusive = small, poorly fitted or top-dose-only effect; inactive = no such curve, though single readings can be large or run the other way. A potency beside an inconclusive call is a rough fit, not a confirmed value.

Test: Primary qHTS assay for inhibitors of alpha-synuclein gene (SNCA) expression; note: nearly all actives have a fitted effect of over 45% in size;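 for activity change, negative = inhibition: plate controls were DMSO cells for no effect and cell-free wells for full effect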
Details: HEK-293 SNCA-luciferase knock-in, luminescence, 24 h; activity change, negative = inhibition: at 57.2 µM (top of the series) unless noted
Potency is the fitted concentration of half-maximal effect; tags give direction and shape of the fitted curve.

Potency, inconclusive:
CCOc1ccc(OCC(=O)NCCS(=O)(=O)N2CCN(c3ccc(OC)cc3)CC2)cc1 44.7 µM [inhibitor, partial curve, poor fit]
COc1ccc(-c2noc([C@@H]3Cc4nc[nH]c4CN3Cc3ccc(CO)o3)n2)cc1 6.31 µM [inhibitor, full curve]
Cc1cccc(Cn2nnc3c(=O)[nH]c(C4CCCN(C(=O)c5ccc(C(C)(C)C)cc5)C4)nc32)c1 (stereo not given) 35.5 µM [inhibitor, single point]
Clc1ccc(CNC[C@H]2Cn3c(-c4cccc(Cl)c4)cnc3CO2)cc1 56.2 µM [inhibitor, single point]
COc1ncccc1-c1cnc2n[nH]c(-c3ccc4c(c3)OCO4)c2n1 3.98 µM [inhibitor, full curve, poor fit]
CCC(C(=O)Nc1cc(OC)ccc1OC)n1nc(-c2ccccc2)c2c(c1=O)CCCC2 (stereo not given) 28.2 µM [inhibitor, single point]
Fc1ccc(-c2cc3c(cn2)CN(Cc2ccncc2)CCN3)cc1Cl 20 µM [inhibitor, single point]
COCCN1CCCC2(CCN(C(=O)c3ccc(F)c(Cl)c3)C2)C1=O (stereo not given) 22.4 µM [inhibitor, partial curve, poor fit]
CCC(=O)N1CCc2cc(S(=O)(=O)NCCC(=O)Nc3cccc(SC)c3)ccc21 1 µM [inhibitor, full curve]
O=C(Cc1ccc(Cl)cc1)N1CC2CC(C1)[C@H]1CCCC(=O)N1C2 (stereo not given in full) 7.08 µM [inhibitor, full curve, poor fit]
O=C(Cn1ncc2c3ccccc3n(Cc3cccc(Cl)c3)c2c1=O)N1CCCCC1 0.178 µM [inhibitor, full curve, poor fit]
CC1=Nc2cc(C(=O)NC(C)c3ccccc3)ccc2Sc2ccccc21 (stereo not given) 39.8 µM [inhibitor, single point]
Nc1ncccc1CN1CC[C@@H]2OCC(=O)N(Cc3ccccc3)[C@H]2CC1 8.91 µM [inhibitor, full curve]
CCCN1C(C(=O)c2ccccc2)=C(OC(=O)C(C)(C)C)c2ccccc2S1(=O)=O 8.91 µM [inhibitor, partial curve, poor fit]
CCc1ccccc1N1CC(c2nc3ccccc3n2CCC2CCCCC2)CC1=O (stereo not given) 39.8 µM [inhibitor, single point]
CCOC(=O)c1cnc2c(C)cc(C)cc2c1Nc1ccc(N2CCOCC2)cc1 44.7 µM [inhibitor, partial curve, poor fit]
O=C(C[C@@H]1CCNC[C@@H]1Cc1cc(CSc2ccccc2)on1)N1CCN(c2ccccc2)CC1 39.8 µM [inhibitor, single point]
CC(C)CNC(=O)c1cc(-c2ccccc2F)cc2c1OCCN2Cc1cccnc1 12.6 µM [inhibitor, partial curve, poor fit]
CN(Cc1cnccn1)C(=O)c1csc2nc(-c3cccc(C(F)(F)F)c3)cn12 10 µM [inhibitor, partial curve, poor fit]
CCOCCn1c(=O)[nH]c2cc(C(=O)NCc3csc(CC)n3)ccc21 25.1 µM [inhibitor, single point]
COc1cccc(NC(=O)CSc2nnc(NC(=O)NC3CCCCC3)s2)c1 39.8 µM [inhibitor, single point]
Nc1nc2c(c(N3CC[C@@H](O)C3)n1)CCN(C(=O)[C@H]1CCCO1)CC2 39.8 µM [inhibitor, single point]
FC(F)(F)c1cccc(CN2CCOC[C@H](Oc3ccccc3)C2)c1 35.5 µM [inhibitor, partial curve]
COc1ccc(-c2ccc3c(n2)CN(Cc2ccc(F)cc2)C(=O)CO3)cc1 31.6 µM [inhibitor, partial curve]
O=C(Cc1cccc(Cl)c1)N1C[C@@H](CO)[C@H](c2ccncc2)C1 39.8 µM [inhibitor, single point]
COc1ccccc1-c1cn2c(n1)CO[C@@H](CNC(=O)c1ccc(Cl)cc1)C2 56.2 µM [inhibitor, single point]
Cc1ncccc1OC1(C(=O)O)CCN(C(=O)C2CC=CCC2)CC1 (stereo not given) 1.78 µM [inhibitor, full curve]
O=c1c2nc(NCCOc3ccccc3)ccc2ncn1Cc1ccccc1 31.6 µM [inhibitor, single point]
CCc1ccc(OCC2c3cc(OC)c(OC)cc3CCN2C(=O)Cc2ccc(OC)c(OC)c2)cc1 (stereo not given) 39.8 µM [inhibitor, single point]

Activity change, negative = inhibition, inactive:
CC1=NS(=O)(=O)N(C)C=C1C(=O)OCc1nc(-c2ccc(Br)cc2)no1 28%
CCCC(=O)N1Cc2ccccc2CC2(CCCCN2CC)C1 (stereo not given) 1.57%
COc1ccc2oc(=O)c(-c3nc4ccc(C)cc4[nH]3)cc2c1 87%
CC(=O)Nc1cccc(-c2ccc3c(n2)c(=O)ncn3Cc2ccccc2)c1 -5.6% [at 87.6 µM]
CCC(=O)N(C1CCOCC1)C1CCN(S(=O)(=O)c2cccc(C)c2)CC1 -7.84%
COc1ccc(NC(=O)N2CCCC(Cc3noc(-c4cnccn4)n3)C2)cc1 (stereo not given) 18.8%
O=C(c1ccc(F)cc1)N1CCC2(CCc3nn(Cc4ccccc4)c(=O)n3CC2)CC1 -28.3%
Cc1ccc(NC(=O)C2CCN(C(=O)c3ncn4c3COC(c3ccc(F)cc3)C4)CC2)c(Cl)c1 (stereo not given) 30.1%
O=C(NCC1CCN(c2cc(-c3ccc(F)cc3)[nH]n2)CC1)c1n[nH]c2c1CCCC2 -23%
c1ccc(-c2ccnc(NCCOc3cccc4cccnc34)n2)nc1 123%
COCc1nncn1C1CCN(C(=O)c2ccc(F)cc2F)CC1 0.711%
